Measurements: the supplement of paper PMC4967469
A lower IC50 marks a more sensitive line; a fit beyond the top or the lowest dose is shown as a bound at that dose. The AUC spans the tested range (256-fold, ending at the top dose) of the same fit: 1 means no effect, lower means more sensitive. For part of these data: An inferred top dose was calculated from the reported fits. For part of these data: Where an entry number is given, a second screen of the drug exists; the two often differ.

Tests used:
Assay in all cases: Viability of human cancer cell lines after 72 h of drug (GDSC screen)
(5Z)-7-Oxozeaenol = compound: COc1cc(O)c2c(c1)/C=C/C[C@H](O)[C@H](O)C(=O)/C=C\C[C@H](C)OC2=O [(5Z)-7-Oxozeaenol]; conditions: top dose 10 µM; top dose inferred
Method: (§1)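 Human cancer cell lines in 384-well plates, medium with 10% serum, drug for 72 h over a 256-fold dose range (nine 2-fold or five 4-fold steps up to the top dose). Adherent lines were fixed and stained with the nucleic acid dye Syto60, suspension lines read with resazurin; signal relative to control wells, capped at 0 and 100%. One two-parameter sigmoid per drug and line, fitted in a mixed model over all curves with the slope shared within a line.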

CMK = compound: Cc1ccc(-c2c(C(=O)CCl)n(CCCO)c3ncnc(N)c23)cc1 [CMK]; conditions: top dose 4 µM; top dose inferred
Method: as §1

ABT-888 = compound: C[C@]1(c2nc3c(C(N)=O)cccc3[nH]2)CCCN1 [ABT-888]; conditions: top dose 5 µM; top dose inferred
Method: as §1

CHIR-99021 = compound: Cc1cnc(-c2cnc(NCCNc3ccc(C#N)cn3)nc2-c2ccc(Cl)cc2Cl)[nH]1 [CHIR-99021]
Method: as §1

KU-55933 = compound: O=c1cc(-c2cccc3c2Sc2ccccc2S3)oc(N2CCOCC2)c1 [KU-55933]; conditions: top dose 10 µM
Method: as §1

MPS-1-IN-1 = compound: COc1cc(N2CCC(O)CC2)ccc1Nc1cc(Nc2ccccc2S(=O)(=O)C(C)C)c2cc[nH]c2n1 [MPS-1-IN-1]; conditions: top dose 20 µM; top dose inferred
Method: as §1

Cytarabine = compound: Nc1ccn([C@@H]2O[C@H](CO)[C@@H](O)[C@@H]2O)c(=O)n1 [Cytarabine]; conditions: top dose 2 µM
Method: as §1

GSK269962A = compound: CCn1c(-c2nonc2N)nc2cnc(Oc3cccc(NC(=O)c4ccc(OCCN5CCOCC5)cc4)c3)cc21 [GSK269962A]; conditions: top dose inferred
Method: as §1

Thapsigargin = compound: C/C=C(/C)C(=O)O[C@H]1C(C)=C2[C@H]([C@@H]1OC(=O)CCCCCCC)[C@@](C)(OC(C)=O)C[C@H](OC(=O)CCC)[C@@]1(O)[C@H]2OC(=O)[C@@]1(C)O [Thapsigargin]; conditions: top dose 0.512 µM; top dose inferred
Method: as §1

ABT-869 = compound: Cc1ccc(F)c(NC(=O)Nc2ccc(-c3cccc4[nH]nc(N)c34)cc2)c1 [ABT-869]; conditions: top dose 1.024 µM; top dose inferred
Method: as §1

CP466722 = compound: COc1cc2ncnc(-n3nc(-c4ccccn4)nc3N)c2cc1OC [CP466722]; conditions: top dose 16 µM; top dose inferred
Method: as §1

Zibotentan = compound: COc1nc(C)cnc1NS(=O)(=O)c1cccnc1-c1ccc(-c2nnco2)cc1 [Zibotentan]; conditions: top dose 20 µM; top dose inferred
Method: as §1

QL-X-138 = compound: C=CC(=O)Nc1cc(-n2c(=O)ccc3cnc4ccc(-c5cn[nH]c5)cc4c32)ccc1C [QL-X-138]; conditions: top dose 10.24 µM; top dose inferred
Method: as §1

[1] = top dose 2.56 µM, screen: GDSC drug entry 154
[2] = top dose 10 µM, screen: GDSC drug entry 1241, top dose inferred
[3] = top dose 2.5 µM, screen: GDSC drug entry 127
[4] = top dose 5 µM, screen: GDSC drug entry 1192

Row | Cell Line | AUC ((5Z)-7-Oxozeaenol) | IC50 ((5Z)-7-Oxozeaenol) [nM] | AUC (CMK) | IC50 (CMK) [nM] | AUC (ABT-888) | IC50 (ABT-888) [nM] | AUC (CHIR-99021; [1]) | IC50 (CHIR-99021; [1]) [nM] | AUC (CHIR-99021; [2]) | IC50 (CHIR-99021; [2]) [nM] | AUC (KU-55933) | IC50 (KU-55933) [nM] | AUC (MPS-1-IN-1) | IC50 (MPS-1-IN-1) [nM] | AUC (Cytarabine) | IC50 (Cytarabine) [nM] | AUC (GSK269962A; [3]) | IC50 (GSK269962A; [3]) [nM] | AUC (GSK269962A; [4]) | IC50 (GSK269962A; [4]) [nM] | AUC (Thapsigargin) | IC50 (Thapsigargin) [nM] | AUC (ABT-869) | IC50 (ABT-869) [nM] | AUC (CP466722) | IC50 (CP466722) [nM] | AUC (Zibotentan) | IC50 (Zibotentan) [nM] | AUC (QL-X-138) | IC50 (QL-X-138) [nM]
1 | GI-ME-N (neuroblastoma, adherent) | 0.427 | 367 | 0.784 | 2380 | 0.969 | > 5000 | 0.963 | > 2560 | 0.916 | > 10000 | 0.963 | > 10000 | 0.785 | 12100 | 0.817 | 1680 | 0.38 | 64.5 | 0.412 | 164 | 0.352 | 10.7 | 0.933 | > 1020 | 0.759 | 7580 | 0.973 | > 20000 | 0.513 | 702
2 | GOTO (neuroblastoma, adherent) | 0.703 | 2540 | 0.833 | 3080 | 0.984 | > 5000 | 0.983 | > 2560 | 0.868 | > 10000 | 0.88 | > 10000 | 0.886 | > 20000 | 0.683 | 439 | 0.96 | > 2500 | 0.929 | > 5000 | 0.621 | 72.4 | 0.974 | > 1020 | 0.893 | > 16000 | 0.978 | > 20000 | 0.634 | 1580
3 | GR-ST (lymphoblastic leukaemia, suspension) | 0.694 | 2480 | 0.914 | > 4000 | 0.978 | > 5000 | 0.981 | > 2560 | 0.897 | > 10000 | 0.961 | > 10000 | 0.79 | 11000 | 0.647 | 349 | 0.903 | > 2500 | 0.809 | 3300 | 0.419 | 18.3 | 0.98 | > 1020 | 0.699 | 4140 | 0.98 | > 20000 | 0.371 | 260
4 | GT3TKB (stomach, adherent) | 0.557 | 876 | 0.972 | > 4000 | 0.99 | > 5000 | 0.989 | > 2560 | 0.762 | 3180 | 0.901 | > 10000 | 0.968 | > 20000 | 0.707 | 440 | 0.868 | 1830 | 0.757 | 1530 | 0.373 | 15 | 0.99 | > 1020 | 0.963 | > 16000 | 0.989 | > 20000 | 0.886 | 9010
